Results: article PMC5892938
The list shows a part of the results. At the low end of the ranking, values are background and their order means little.

The sequences below were run against GST-SBP-SLBP (stem-loop binding protein) (UniProt Q14493) (assay: targeted RNA Bind-n-Seq). Details: RBNS binding buffer: 25 mM Tris pH 7.5, 150 mM KCl, 3 mM MgCl2, 0.1% Tween, 0.5 mg/mL BSA, 1 mM DTT; 27 nM protein, 750 pM RNA pool; temperature not stated; high values mean tight binding.
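Also: DESeq read counts versus GST-SBP nonspecific binding control pulldown.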

Sequence	binding signal (log2 fold change)
GGUCACGUCUCAAUCAACUCAUUCCCAGGAGUUUUCUCCUGCUAAUUCAACAGCUCGCAGUCAAG	-0.0684
GGUCACGUCUCAAUCAACUCUAUCCCAGGAGUUUACUCCUGCAUUCUCAACAGCUCGCAGUCAAG	0.0896
GGUCACGUCUCAAUCAACUCUUUCCCCAGGGAAACCCCUGGUAUUCUCAACAGCUCGCAGUCAAG	0.0621
GGUCACGUCUCAAUCAACUCGCAAGAGGGGGGGAAAACCCCUUUACCCUCCAUUUCAACAGCUCGCAGUCAAG	-0.189
GGUCACGUCUCAAUCAACUCUCUAGAGGGGGGGAAAACCCCUUUGCCCUCGUUAUCAACAGCUCGCAGUCAAG	-0.416
GGUCACGUCUCAAUCAACUCAAUCUCAGGAGUUUCCUCCUGCAUUCUCAACAGCUCGCAGUCAAG	0.203
GGUCACGUCUCAAUCAACUCAACUUCCAGGGAAAGCCCUGGUUAUUUCAACAGCUCGCAGUCAAG	0.0539
GGUCACGUCUCAAUCAACUCAUUCCCCAGGGAAAGCCCUGGCUAUUUCAACAGCUCGCAGUCAAG	0.0115
GGUCACGUCUCAAUCAACUCAUCUCCCAGGGAAACCCCUGGCAAACUCAACAGCUCGCAGUCAAG	-0.225
GGUCACGUCUCAAUCAACUCAUCCCCCAGGGAAAUCCCUGGUAUACUCAACAGCUCGCAGUCAAG	0.0698
GGUCACGUCUCAAUCAACUCUAUUCCAGGAGUUUUCUCCUGCUAUUUCAACAGCUCGCAGUCAAG	-0.242
GGUCACGUCUCAAUCAACUCAAUUCCAGGAGUUUGCUCCUGCUUUUUCAACAGCUCGCAGUCAAG	0.00777
GGUCACGUCUCAAUCAACUCUAGUCCCAGGGAAACCCCUGGCAAUCUCAACAGCUCGCAGUCAAG	-0.177
GGUCACGUCUCAAUCAACUCUUUUUCCAGGGAAAACCCUGGCUAACUCAACAGCUCGCAGUCAAG	-0.0647
GGUCACGUCUCAAUCAACUCCGCAGAGGGGGGGAAAACCCCUUUACCCUCCAUUUCAACAGCUCGCAGUCAAG	-0.0209
GGUCACGUCUCAAUCAACUCAAUUUCAGGAGUUUUCUCCUGCAUGUUCAACAGCUCGCAGUCAAG	0.0789
GGUCACGUCUCAAUCAACUCUAAAGAGGGGGGGAAAACCCCUUUACCCUCAAAUUCAACAGCUCGCAGUCAAG	0.00196
GGUCACGUCUCAAUCAACUCUUCUUCAGGAGUUUACUCCUGCUUACUCAACAGCUCGCAGUCAAG	-0.00474
GGUCACGUCUCAAUCAACUCCCUAGAGGGGGGGAAAACCCCUUUGCCCUCAUCUUCAACAGCUCGCAGUCAAG	-0.427
GGUCACGUCUCAAUCAACUCAUUUUCCAGGGAAACCCCUGGUUUAUUCAACAGCUCGCAGUCAAG	-0.102
GGUCACGUCUCAAUCAACUCAUCUUCAGGAGUUUCCUCCUGUUUACUCAACAGCUCGCAGUCAAG	0.025
GGUCACGUCUCAAUCAACUCCUUAGAGGGGGGGAAAACCCCUUUACCCUCAAUAUCAACAGCUCGCAGUCAAG	-0.212
GGUCACGUCUCAAUCAACUCACAAGAGGGGGGGAAAACCCCUUUACCCUCACUAUCAACAGCUCGCAGUCAAG	0.144
GGUCACGUCUCAAUCAACUCAAUCCCAGGAGUUUACUCCUGCAAAGUCAACAGCUCGCAGUCAAG	0.0328
GGUCACGUCUCAAUCAACUCCUAAGAGGGGGGGAAAACCCCUUUGCCCUCCAAUUCAACAGCUCGCAGUCAAG	0.279

Sequence	binding signal (log2 fold change)
GGUCACGUCUCAAUCAACUCAUCUCCAGGAGUUUGCUCCUGCAUUUUCAACAGCUCGCAGUCAAG	0.149
GGUCACGUCUCAAUCAACUCUUUUCCCAGGGAAACCCCUGGUAAUUUCAACAGCUCGCAGUCAAG	-0.0857
GGUCACGUCUCAAUCAACUCAACUCCAGGAGUUUGCUCCUGCUUUUUCAACAGCUCGCAGUCAAG	-0.0542
GGUCACGUCUCAAUCAACUCUUCCUCAGGAGUUUCCUCCUGCAUACUCAACAGCUCGCAGUCAAG	0.271
GGUCACGUCUCAAUCAACUCUUCCCCAGGAGUUUUCUCCUGUUAUUUCAACAGCUCGCAGUCAAG	0.0302
GGUCACGUCUCAAUCAACUCAUCUCCCAGGGAAAUCCCUGGUUAUCUCAACAGCUCGCAGUCAAG	0.151
GGUCACGUCUCAAUCAACUCAUCCUCAGGAGUUUACUCCUGUAUACUCAACAGCUCGCAGUCAAG	-0.0396
GGUCACGUCUCAAUCAACUCAAUCUCAGGAGUUUACUCCUGUAAAUUCAACAGCUCGCAGUCAAG	0.028
GGUCACGUCUCAAUCAACUCUCUCGAGGGGGGGAAAACCCCUUUACCCUCACUUUCAACAGCUCGCAGUCAAG	0.0987
GGUCACGUCUCAAUCAACUCAAACGAGGGGGGGAAAACCCCUUUACCCUCAAUUUCAACAGCUCGCAGUCAAG	-0.455
GGUCACGUCUCAAUCAACUCAUCCCCAGGAGUUUUCUCCUGUUAACUCAACAGCUCGCAGUCAAG	0.125
GGUCACGUCUCAAUCAACUCAGUCUCCAGGGAAACCCCUGGCUAAUUCAACAGCUCGCAGUCAAG	-0.224
GGUCACGUCUCAAUCAACUCAAGUCCAGGAGUUUACUCCUGCUAAUUCAACAGCUCGCAGUCAAG	0.0169
GGUCACGUCUCAAUCAACUCAUCCUCAGGAGUUUUCUCCUGUAAACUCAACAGCUCGCAGUCAAG	0.0461
GGUCACGUCUCAAUCAACUCUUUCUCCAGGGAAACCCCUGGCAUUCUCAACAGCUCGCAGUCAAG	0.0446
GGUCACGUCUCAAUCAACUCUAUUUCCAGGGAAAUCCCUGGCUUUUUCAACAGCUCGCAGUCAAG	-0.149
GGUCACGUCUCAAUCAACUCAAUCUCAGGAGUUUACUCCUGCUUACUCAACAGCUCGCAGUCAAG	0.163
GGUCACGUCUCAAUCAACUCAAGUCCAGGAGUUUACUCCUGCUUAUUCAACAGCUCGCAGUCAAG	0.173
GGUCACGUCUCAAUCAACUCAAUCUCAGGAGUUUACUCCUGCAUUUUCAACAGCUCGCAGUCAAG	0.136
GGUCACGUCUCAAUCAACUCAUCCUCAGGAGUUUUCUCCUGCAUAGUCAACAGCUCGCAGUCAAG	0.195
GGUCACGUCUCAAUCAACUCCUUCGAGGGGGGGAAAACCCCUUUACCCUCAAUAUCAACAGCUCGCAGUCAAG	-0.442
GGUCACGUCUCAAUCAACUCUUUCUCCAGGGAAAACCCUGGUAAACUCAACAGCUCGCAGUCAAG	0.033
GGUCACGUCUCAAUCAACUCAGUCCCAGGAGUUUUCUCCUGCUAAUUCAACAGCUCGCAGUCAAG	0.335
GGUCACGUCUCAAUCAACUCUUCUCCCAGGGAAAUCCCUGGUUAUCUCAACAGCUCGCAGUCAAG	-0.202
GGUCACGUCUCAAUCAACUCACAAGAGGGGGGGAAAACCCCUUUGCCCUCAACCUCAACAGCUCGCAGUCAAG	-0.199

Sequence	binding signal (log2 fold change)
GGUCACGUCUCAAUCAACUCUUUCGAGGGGGGGAAAACCCCUUUGCCCUCACAUUCAACAGCUCGCAGUCAAG	0.257
GGUCACGUCUCAAUCAACUCAUCGUCCAGGGAAAACCCUGGUUAAUUCAACAGCUCGCAGUCAAG	0.168
GGUCACGUCUCAAUCAACUCAAUCUCCAGGGAAAGCCCUGGCAAUUUCAACAGCUCGCAGUCAAG	-0.238
GGUCACGUCUCAAUCAACUCUAUCCCAGGAGUUUCCUCCUGCUAUCUCAACAGCUCGCAGUCAAG	-0.00324
GGUCACGUCUCAAUCAACUCUUACGAGGGGGGGAAAACCCCUUUGCCCUCAACAUCAACAGCUCGCAGUCAAG	0.326
GGUCACGUCUCAAUCAACUCAUCGCCCAGGGAAAACCCUGGUAUUCUCAACAGCUCGCAGUCAAG	0.0168
GGUCACGUCUCAAUCAACUCUUCCGCAGGAGUUUUCUCCUGGUAAUUCAACAGCUCGCAGUCAAG	0.0966
GGUCACGUCUCAAUCAACUCAUCGUCAGGAGUUUACUCCUGUUUACUCAACAGCUCGCAGUCAAG	-0.0696
GGUCACGUCUCAAUCAACUCUUCUCCCAGGGAAAACCCUGGCUAAUUCAACAGCUCGCAGUCAAG	0.168
GGUCACGUCUCAAUCAACUCAACUCCAGGAGUUUCCUCCUGCUUUUUCAACAGCUCGCAGUCAAG	0.0819
GGUCACGUCUCAAUCAACUCUAUUUCCAGGGAAAACCCUGGCUUACUCAACAGCUCGCAGUCAAG	-0.0304
GGUCACGUCUCAAUCAACUCUACGCCAGGAGUUUUCUCCUGUAUUCUCAACAGCUCGCAGUCAAG	-0.253
GGUCACGUCUCAAUCAACUCAUCUCCCAGGGAAAACCCUGGCAAUUUCAACAGCUCGCAGUCAAG	0.243
GGUCACGUCUCAAUCAACUCAUUUCCAGGAGUUUACUCCUGCUUUCUCAACAGCUCGCAGUCAAG	0.235
GGUCACGUCUCAAUCAACUCAAUUUCAGGAGUUUUCUCCUGUAUAUUCAACAGCUCGCAGUCAAG	-0.0269
GGUCACGUCUCAAUCAACUCUUCUUCCAGGGAAAUCCCUGGUUAAUUCAACAGCUCGCAGUCAAG	0.0744
GGUCACGUCUCAAUCAACUCAACAGAGGGGGGGAAAACCCCUUUACCCUCAAACUCAACAGCUCGCAGUCAAG	-0.181
GGUCACGUCUCAAUCAACUCCACGGAGGGGGGGAAAACCCCUUUACCCUCAACAUCAACAGCUCGCAGUCAAG	0.168
GGUCACGUCUCAAUCAACUCAUCGGAGGGGGGGAAAACCCCUUUACCCUCAAACUCAACAGCUCGCAGUCAAG	0.199
GGUCACGUCUCAAUCAACUCAUCGCCCAGGGAAAACCCUGGUAAUCUCAACAGCUCGCAGUCAAG	-0.00718
GGUCACGUCUCAAUCAACUCUCACGAGGGGGGGAAAACCCCUUUACCCUCUAUCUCAACAGCUCGCAGUCAAG	0.217
GGUCACGUCUCAAUCAACUCUUUUCCCAGGGAAAUCCCUGGCAAUGUCAACAGCUCGCAGUCAAG	-0.105
GGUCACGUCUCAAUCAACUCAAUUCCAGGAGUUUCCUCCUGUAAACUCAACAGCUCGCAGUCAAG	0.102
GGUCACGUCUCAAUCAACUCUACUCCCAGGGAAAACCCUGGUAAUCUCAACAGCUCGCAGUCAAG	0.015
